Laboratory results taken from article PMC12203921.
No constants are given. Whether binding was seen depends on the method and setting. In cells and extracts the contact can be indirect. Some entries that bind do so weakly or less than the wild type. One block for each molecule: values may come before it.

Amino acid sequences for entries named in this document (tags omitted).
UniProt Q9R0L6: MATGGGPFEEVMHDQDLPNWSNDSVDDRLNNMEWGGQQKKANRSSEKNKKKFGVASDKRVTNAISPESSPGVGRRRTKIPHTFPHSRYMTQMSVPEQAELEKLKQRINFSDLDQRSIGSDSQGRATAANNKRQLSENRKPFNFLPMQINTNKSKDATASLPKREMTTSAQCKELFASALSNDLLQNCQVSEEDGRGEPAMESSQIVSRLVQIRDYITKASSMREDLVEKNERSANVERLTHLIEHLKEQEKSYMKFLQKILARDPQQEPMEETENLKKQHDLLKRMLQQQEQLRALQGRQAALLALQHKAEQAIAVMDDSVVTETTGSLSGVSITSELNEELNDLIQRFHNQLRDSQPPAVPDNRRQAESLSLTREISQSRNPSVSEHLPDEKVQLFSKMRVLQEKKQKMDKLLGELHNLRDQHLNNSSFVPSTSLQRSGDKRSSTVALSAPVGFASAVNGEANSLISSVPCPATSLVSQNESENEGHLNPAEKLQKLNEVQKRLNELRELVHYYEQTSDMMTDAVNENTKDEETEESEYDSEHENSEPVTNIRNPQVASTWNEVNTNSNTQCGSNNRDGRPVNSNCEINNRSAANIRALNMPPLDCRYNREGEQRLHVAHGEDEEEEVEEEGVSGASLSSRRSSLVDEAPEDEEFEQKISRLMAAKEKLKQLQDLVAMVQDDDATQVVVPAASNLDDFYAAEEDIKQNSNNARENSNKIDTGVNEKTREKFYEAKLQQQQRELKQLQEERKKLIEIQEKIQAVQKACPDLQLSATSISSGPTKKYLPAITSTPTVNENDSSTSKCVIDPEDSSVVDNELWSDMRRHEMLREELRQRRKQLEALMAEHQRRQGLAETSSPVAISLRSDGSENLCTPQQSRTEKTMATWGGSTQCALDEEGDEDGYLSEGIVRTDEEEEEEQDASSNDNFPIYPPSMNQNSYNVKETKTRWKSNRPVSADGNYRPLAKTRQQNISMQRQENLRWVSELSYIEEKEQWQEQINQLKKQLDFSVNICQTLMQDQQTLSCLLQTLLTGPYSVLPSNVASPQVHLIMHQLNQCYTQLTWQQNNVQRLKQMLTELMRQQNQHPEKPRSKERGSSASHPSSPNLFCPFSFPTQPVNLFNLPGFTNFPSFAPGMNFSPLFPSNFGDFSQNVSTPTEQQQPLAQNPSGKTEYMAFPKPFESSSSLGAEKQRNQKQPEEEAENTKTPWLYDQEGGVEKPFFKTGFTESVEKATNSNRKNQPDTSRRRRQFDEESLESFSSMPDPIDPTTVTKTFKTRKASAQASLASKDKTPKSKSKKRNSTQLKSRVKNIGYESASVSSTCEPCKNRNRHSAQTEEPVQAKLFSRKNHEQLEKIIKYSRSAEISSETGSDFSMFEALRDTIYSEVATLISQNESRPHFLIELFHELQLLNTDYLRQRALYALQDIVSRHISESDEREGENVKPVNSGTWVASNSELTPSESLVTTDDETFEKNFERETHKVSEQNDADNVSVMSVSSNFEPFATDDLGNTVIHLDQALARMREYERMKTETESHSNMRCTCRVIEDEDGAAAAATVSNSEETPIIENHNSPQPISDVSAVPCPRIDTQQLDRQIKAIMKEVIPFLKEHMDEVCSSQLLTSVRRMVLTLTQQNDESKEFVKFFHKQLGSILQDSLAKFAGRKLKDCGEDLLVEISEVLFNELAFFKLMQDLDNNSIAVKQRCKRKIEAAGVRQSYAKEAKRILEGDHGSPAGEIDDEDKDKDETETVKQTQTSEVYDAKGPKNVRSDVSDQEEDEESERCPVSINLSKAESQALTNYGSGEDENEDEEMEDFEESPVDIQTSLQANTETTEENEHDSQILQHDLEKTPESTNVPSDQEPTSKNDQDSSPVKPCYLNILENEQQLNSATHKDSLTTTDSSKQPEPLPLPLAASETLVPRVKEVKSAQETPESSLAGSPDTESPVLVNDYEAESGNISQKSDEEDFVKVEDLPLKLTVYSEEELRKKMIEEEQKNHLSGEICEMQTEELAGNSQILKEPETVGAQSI
UniProt Q6VH22: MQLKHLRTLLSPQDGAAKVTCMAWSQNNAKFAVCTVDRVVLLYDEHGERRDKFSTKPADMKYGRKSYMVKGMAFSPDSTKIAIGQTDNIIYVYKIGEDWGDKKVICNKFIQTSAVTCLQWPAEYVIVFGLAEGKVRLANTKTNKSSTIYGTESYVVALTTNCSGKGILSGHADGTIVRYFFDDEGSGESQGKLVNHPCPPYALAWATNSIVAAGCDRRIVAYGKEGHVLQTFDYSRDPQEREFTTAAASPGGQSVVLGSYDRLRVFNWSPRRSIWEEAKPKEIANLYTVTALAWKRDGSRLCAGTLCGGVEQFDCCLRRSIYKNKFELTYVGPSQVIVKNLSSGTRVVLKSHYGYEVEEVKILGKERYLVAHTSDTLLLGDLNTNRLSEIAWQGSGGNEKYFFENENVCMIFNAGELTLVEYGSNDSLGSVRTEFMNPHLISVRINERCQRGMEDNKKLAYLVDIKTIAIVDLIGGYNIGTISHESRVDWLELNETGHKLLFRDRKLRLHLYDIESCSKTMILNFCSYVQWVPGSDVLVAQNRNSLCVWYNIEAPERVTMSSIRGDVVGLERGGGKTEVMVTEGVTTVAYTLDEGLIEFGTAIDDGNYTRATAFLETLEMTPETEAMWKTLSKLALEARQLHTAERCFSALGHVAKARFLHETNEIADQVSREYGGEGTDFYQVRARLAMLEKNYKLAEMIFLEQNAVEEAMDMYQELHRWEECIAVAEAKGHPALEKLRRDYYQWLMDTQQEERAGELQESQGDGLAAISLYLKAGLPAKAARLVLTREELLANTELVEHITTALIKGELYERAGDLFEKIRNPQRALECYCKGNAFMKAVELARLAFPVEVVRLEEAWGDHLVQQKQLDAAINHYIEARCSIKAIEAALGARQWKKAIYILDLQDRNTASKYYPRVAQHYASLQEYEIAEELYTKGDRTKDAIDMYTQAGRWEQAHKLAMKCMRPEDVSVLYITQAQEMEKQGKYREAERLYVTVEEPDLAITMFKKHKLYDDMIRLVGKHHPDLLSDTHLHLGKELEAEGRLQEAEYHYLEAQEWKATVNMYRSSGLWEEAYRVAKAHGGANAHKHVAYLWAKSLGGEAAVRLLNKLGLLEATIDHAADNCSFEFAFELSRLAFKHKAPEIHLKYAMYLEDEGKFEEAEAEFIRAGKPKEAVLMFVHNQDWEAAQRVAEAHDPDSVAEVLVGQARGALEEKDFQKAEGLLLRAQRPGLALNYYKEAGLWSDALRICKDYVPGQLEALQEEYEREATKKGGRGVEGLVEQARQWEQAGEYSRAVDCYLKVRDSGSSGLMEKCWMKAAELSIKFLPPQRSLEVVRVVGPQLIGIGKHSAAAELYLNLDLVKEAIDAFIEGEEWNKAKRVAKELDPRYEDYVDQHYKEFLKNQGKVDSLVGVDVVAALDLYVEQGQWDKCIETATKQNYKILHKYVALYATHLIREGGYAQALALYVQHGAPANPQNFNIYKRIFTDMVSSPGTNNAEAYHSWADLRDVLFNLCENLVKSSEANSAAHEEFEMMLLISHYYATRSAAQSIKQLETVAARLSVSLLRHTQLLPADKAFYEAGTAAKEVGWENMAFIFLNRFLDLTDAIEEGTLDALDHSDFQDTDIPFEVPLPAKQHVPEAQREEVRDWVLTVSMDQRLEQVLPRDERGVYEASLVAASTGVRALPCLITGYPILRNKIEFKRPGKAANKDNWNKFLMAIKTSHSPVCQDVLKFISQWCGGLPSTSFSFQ
UniProt Q8BIL5: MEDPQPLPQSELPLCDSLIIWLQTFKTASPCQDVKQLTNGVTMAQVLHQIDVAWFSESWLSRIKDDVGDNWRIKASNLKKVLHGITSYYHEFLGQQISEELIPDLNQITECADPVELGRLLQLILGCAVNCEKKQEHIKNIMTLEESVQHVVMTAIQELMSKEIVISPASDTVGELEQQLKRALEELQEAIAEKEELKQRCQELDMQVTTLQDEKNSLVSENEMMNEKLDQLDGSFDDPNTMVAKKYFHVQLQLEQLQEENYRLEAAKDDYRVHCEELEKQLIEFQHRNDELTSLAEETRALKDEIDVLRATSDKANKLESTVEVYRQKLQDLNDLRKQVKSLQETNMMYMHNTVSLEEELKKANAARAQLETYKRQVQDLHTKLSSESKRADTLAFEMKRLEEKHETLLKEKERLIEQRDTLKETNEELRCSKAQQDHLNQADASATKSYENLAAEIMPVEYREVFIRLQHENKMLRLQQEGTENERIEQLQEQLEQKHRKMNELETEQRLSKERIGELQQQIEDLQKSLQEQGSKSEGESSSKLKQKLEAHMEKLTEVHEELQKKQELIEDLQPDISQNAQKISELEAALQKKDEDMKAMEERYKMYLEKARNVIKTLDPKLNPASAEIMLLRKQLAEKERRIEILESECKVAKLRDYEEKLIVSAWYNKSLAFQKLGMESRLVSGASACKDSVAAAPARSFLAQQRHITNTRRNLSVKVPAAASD
UniProt P28741: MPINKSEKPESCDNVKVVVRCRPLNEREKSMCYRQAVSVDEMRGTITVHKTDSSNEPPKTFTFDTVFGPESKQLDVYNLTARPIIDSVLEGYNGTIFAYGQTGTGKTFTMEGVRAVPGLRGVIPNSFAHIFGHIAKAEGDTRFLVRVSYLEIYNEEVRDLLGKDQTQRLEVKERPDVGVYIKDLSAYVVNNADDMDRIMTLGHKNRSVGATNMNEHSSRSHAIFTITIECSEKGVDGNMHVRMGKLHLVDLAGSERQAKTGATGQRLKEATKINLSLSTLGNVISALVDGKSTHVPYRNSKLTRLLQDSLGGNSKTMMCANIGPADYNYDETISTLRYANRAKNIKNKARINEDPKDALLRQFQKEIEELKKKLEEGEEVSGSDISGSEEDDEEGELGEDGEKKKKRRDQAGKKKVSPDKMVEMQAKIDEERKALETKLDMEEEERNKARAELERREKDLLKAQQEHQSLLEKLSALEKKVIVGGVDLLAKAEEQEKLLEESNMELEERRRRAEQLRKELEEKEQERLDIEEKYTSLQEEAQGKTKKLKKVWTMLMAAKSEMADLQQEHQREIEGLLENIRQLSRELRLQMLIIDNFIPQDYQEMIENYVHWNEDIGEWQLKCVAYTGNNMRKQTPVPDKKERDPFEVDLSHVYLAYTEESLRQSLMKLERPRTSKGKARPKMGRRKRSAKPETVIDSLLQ

What was measured:
[1] = molecular target: T1, coiled-coil domain-containing 13 (CCDC13) (mouse (endogenous in testis)) (UniProt D3YV10); assay: co-IP; endogenous proteins in mouse testis lysate (150 mM NaCl, 20 mM HEPES, 1 mM DTT, 0.5% NP-40, pH 7.3); antibody overnight at 4 °C, protein A/G agarose beads, 4 washes, western blot
T1 sequence: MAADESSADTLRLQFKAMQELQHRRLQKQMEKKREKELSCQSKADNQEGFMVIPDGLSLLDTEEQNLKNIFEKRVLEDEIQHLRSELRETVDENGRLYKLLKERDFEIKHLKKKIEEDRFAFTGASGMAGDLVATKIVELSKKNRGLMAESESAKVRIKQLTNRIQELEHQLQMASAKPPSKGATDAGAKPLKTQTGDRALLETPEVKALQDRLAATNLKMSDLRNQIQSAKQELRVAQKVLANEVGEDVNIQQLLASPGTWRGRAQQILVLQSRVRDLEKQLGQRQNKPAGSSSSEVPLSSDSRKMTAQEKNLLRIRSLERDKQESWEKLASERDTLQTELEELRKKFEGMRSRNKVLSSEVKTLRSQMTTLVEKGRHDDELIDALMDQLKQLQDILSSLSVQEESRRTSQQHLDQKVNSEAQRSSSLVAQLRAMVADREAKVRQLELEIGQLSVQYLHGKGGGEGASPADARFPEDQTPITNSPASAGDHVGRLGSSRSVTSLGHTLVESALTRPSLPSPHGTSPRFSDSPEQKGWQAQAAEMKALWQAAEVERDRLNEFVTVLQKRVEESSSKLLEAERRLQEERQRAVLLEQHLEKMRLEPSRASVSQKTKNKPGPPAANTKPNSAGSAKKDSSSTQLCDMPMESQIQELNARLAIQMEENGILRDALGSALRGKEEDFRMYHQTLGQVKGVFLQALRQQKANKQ

[2] = molecular target: pericentriolar material 1 (PCM1) (mouse (endogenous in testis)) (UniProt Q9R0L6); assay: as above

Molecule: IFT172 (from UniProt Q6VH22 1-1749)
binding [1]: binds
binding [2]: binds

Molecule: HOOK1 (from UniProt Q8BIL5 1-728)
binding [1]: binds
binding [2]: no binding

B1: MNS1 (protein, UniProt Q61884 1-491)
chain: MATKKRALSFSEKHQKLVDEKFRKSLNIQVMNKLERQAKNQVVQNENDEKVERQRFLRVLQNEQFELDMEEAIQKAEANKMLRDRQLEQEERLANELARLKHESLKDKKMRQQVRENSIELRELEQKLKAAYMNKERAAQIVEKDAMKYEQMKRDAEIERIMMEEHDRLLKEESAKQERRNKERAQYYLDLEKQLEDQERRKQEAYEQLLKEKLMIDEIVRKIYEEDQVERQQKLEKKNAIQKYIEEFQRAQDFWRQKKREEMEEENRKIIEFANIQEQREGERMARVHEIEEKRVQRQNLLMKQLEETLRQRDDLEQVRQELYQEEQAEIIKLKVKEEAELRLRRQREMKQDFEDQMALKELILQAAKEEEETFKKAMLAKFAEDDRIELMNAQKQRMKQLEHKRAVEKLIEERRSQFLADKQRELEELQLQQRRQGCINEIIEEERLRLLKEHAAKLLGYLPKGVFKREDDVDMLGEEFRKAYQKRDGV
binding [1]: binds
binding [2]: binds

B2: ODF2 (protein, UniProt A3KGV1 1-830)
chain: MSASSSGGSPRFPSCGKNGVTSLTQKKVLRTPCGAPSVTVTKSHKRGMKGDTVNVRRSVRVKTKVPWMPPGKSSARHVGCKWENPPHCLEITPPSSEKLVSVMRLSDLSTEDDDSGHCKMNRYDKKIDSLMNAVGCLKSEVKMQKGERQMAKRFLEERKEELEEVAHELAETEHENTVLRHNIERIKEEKDFTMLQKKHLQQEKECLMSKLVEAEMDGAAAAKQVMALKDTIGKLKTEKQMTCTDINTLTRQKELLLQKLSTFEETNRTLRDLLREQHCKEDSERLMEQQGTLLKRLAEADSEKARLLLLLQDKDKEVEELLQEIQCEKAQAKTASELSKSMESMRGHLQAQLRCKEAENSRLCMQIKNLERSGNQHKAEVEAIMEQLKELKQKGDRDKETLKKAIRAQKERAEKSEEYAEQLHVQLADKDLYVAEALSTLESWRSRYNQVVKDKGDLELEIIVLNDRVTDLVNQQQSLEEKMREDRDSLVERLHRQTAEYSAFKLENERLKASFAPMEDKLNQAHLEVQQLKASVKNYEGMIDNYKSQVMKTRLEADEVAAQLERCDKENKMLKDEMNKEIEAARRQFQSQLADLQQLPDILKITEAKLAECQDQLQGYERKNIDLTAIISDLRSRIEHQGDKLEMAREKHQASQKENKQLSQKVDELERKLEATSAQNVEFLQVIAKREEAIHQAQLRLEEKTRECGSLARQLESAIEDARRQVEQTKEQALSKERAAQSKILDLETQLSRTKTELGQLRRTRDDADRRYQSRLQDLKDRLEQSESTNRSMQNYVQFLKASYANVFGDAPYTSSYLTSSPIRSRSPPA
binding [1]: binds
binding [2]: no binding

B3: IFT81 (protein, UniProt O35594 1-676)
chain: MSDQIKFIVDSLNKEPFKKNYNLITFDSLGPMQLLQVLNDVLAEIDPKQDVDIREEMPEQTAKRMLNLLGILKYKPPGNATDMSTFRQGLVIGSKPVIYPVLHWLLQRSNELKKRAYLARFLIKLEVPSEFLQDETVADTNKQYEELMEAFKTLHKECEQLKTSGFSTAEIRRDISAMEEEKDQLMKRVERLKKRVETVQNHQRMLKIARQLRVEKEREEFLAQQKQEQKNQLFHAVQRLQRVQNQLKSMRHAAADAKPESLMKRLEEEIKFNSYMVTEKFPKELESKKKELHFLQKVVSEPAMGHSDLLELETKVNEVNTEINQLIEKKMMRNEPIEGKLSLYRQQASIISRKKEAKAEELQETKEKLASLEREVLVKTNQTREFDGTEVLKGDEFKRYVSKLRSKSTVFKKKHQIIAEFKAEFGLLQRTEELLKQRQETIQHQLRTIEEKKGISGYSYTQEELERVSALKSEVDEMKGRTLDDMSEMVKKLNSLVSEKKSALAPVIKELRQLRQKCQELTQECDEKKAQYDSCAAGLESNRSKLEQEVRGLREECLQEESKYHYTNCMIKNLEVELRRATDEMKAYVSSDQQEKRKAIREQYTKNITEQENLGKKLREKQKAVRESHGPNMKQAKMWRDLEQLMECKKQCFLKQQSPASIGQVIQEGGEDRLVL
binding [1]: binds
binding [2]: binds

Further lines, results first:

binding [1]: binds
binding [2]: binds
Molecule: KIF3A (from UniProt P28741 1-701)

binding [1]: binds
binding [2]: binds
B4: IFT74 (protein, UniProt Q8BKE9 1-600)
chain: MASNHKSSAPRPISRGGIGLTGRPPSGIRPPSGNVRVATAMPPTTARPGSRGGPLGTGGVLSSQIKVADRPVTQQGLSGMKTGMKGPQRQILDKSYYLGLLRSKISELTTEINKLQKEIEMYNQENSVYLSYEKRAETLAVEIKDFQGQLADYNMLVDKLNTNTEMEEVMSDYNMLKAQNDRETQSMDVIFTERQAKEKQIRSVEEEVEQEKQAADGIIKNMSPEKQVKYIEMKTTNEKLLQELDTLQQQLDSLNMKKESLETEIAHSQVKQEAVLLYEKLYELESHRDQMIAEDKSMGSPMEERERLLKQVKEDNQEIASMERQLTDIKEKINQFSEEIRQLDMDLEEHQGEMNQKYKELKKREENMDAFIETFEETKNQELERKAQIEASIITLLEHCSRNINRMKQISSITNQELKMMQDDLSFKSTEMQKSQTTARNLTSDSQRLQLDLQKMELLESKMTEEQQSLKNKIKQMTADLETYSDLAALKSSAEEKKKKLHQERTVLSTHRNAFKKIMEKLTSDYDTLKRQLQDNETHAQLTNLERKWQHLEQNNFVMKEFIATKSQESDYQPVIKNVMKQIAEYNKTIMDALHNASRS
